The values that follow come from PMC7819943, “Rice protein-binding microarrays: a tool to detect cis-acting elements near promoter regions in rice”.

The list shows a part of the results.

For this assay, the target named is T1, OsWOX13 (Oryza sativa, UniProt Q5QMM3 1-267).
T1 sequence: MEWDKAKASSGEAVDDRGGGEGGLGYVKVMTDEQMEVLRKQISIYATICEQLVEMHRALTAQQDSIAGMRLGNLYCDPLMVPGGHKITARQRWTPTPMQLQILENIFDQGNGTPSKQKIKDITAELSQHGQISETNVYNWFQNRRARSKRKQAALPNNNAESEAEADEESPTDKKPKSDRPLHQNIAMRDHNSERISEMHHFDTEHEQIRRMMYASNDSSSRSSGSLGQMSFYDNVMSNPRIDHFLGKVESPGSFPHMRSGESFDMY
Kind of assay: protein-binding microarray (RPBM); PBS, 2% BSA, 51.3 ng/ul salmon testes DNA, 50 uM zinc acetate, 200 nM TF, 25 C, 1 h; high values mean tight binding. The settings on record: protein: recombinant; tags: N-terminal polyhistidine and DsRed monomer fusion (pET32a); label: CyDye5-dUTP incorporated in the synthesized complementary strand; 3' TTTTT single-stranded linker to array surface; dsDNA, one strand shown. In short, it runs like this:
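Transcription factors were each fused at the N-terminus to a polyhistidine tag plus DsRed and expressed in E. coli BL21-CodonPlus before Ni–NTA purification. Binding to a double-stranded custom Agilent array was carried out with 200 nM protein at 25 °C for 1 h in PBS, 2% BSA, salmon testes DNA and 50 µM zinc acetate. The binding signal is per-feature fluorescence intensity, in arbitrary units, on an Axon 4000B scanner.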
“TAGTGATTGATTCTCTACTGTTGCACCAATCATGATTGCGCGGAGTCACCTAGTGCAG”: the binding signal was 38000 fluorescence intensity (a.u.).

Turning to “CTCCCTATCAATTTCCATCTCCCCTGTCAAACAAGATATTCGGAGTCACCTAGTGCAG”, the binding signal was 7060 fluorescence intensity (a.u.). The figure for “CACTACTTATCCAATCACAACCCTACATCACTCACTTCTACGGAGTCACCTAGTGCAG” is 6030 fluorescence intensity (a.u.); for “CAGGTCTAATTTTGGACAGCAGACATAATTTTGTCTGTGCCGGAGTCACCTAGTGCAG” it is 5690 fluorescence intensity (a.u.); for “CTGTCCAATCACATTGCATCGCCATCACTTGAGTCCGTTTCGGAGTCACCTAGTGCAG” it is 14200 fluorescence intensity (a.u.). Then “TTCTTCCTATCTTGATTACATTGAATGACCTCCTTCGGTTCGGAGTCACCTAGTGCAG”, with 7310 fluorescence intensity (a.u.). The figure for “TGGTAATTACTCCCTTTAATTTGAAGGAACCCTATAGTTTCGGAGTCACCTAGTGCAG” is 27700 fluorescence intensity (a.u.). “GTTGATTAGCATATATTATTGGTTGCATGTTAGGCTTCCACGGAGTCACCTAGTGCAG”: the binding signal was 54700 fluorescence intensity (a.u.). Take “ACGGTAAAATCAATATTCTTGATTACACGGTGTCGTTGTCCGGAGTCACCTAGTGCAG”: the binding signal is 14600 fluorescence intensity (a.u.). The figure for “TTAGACATGATGATCTTTTATTCATGCATCTGATAATCCTCGGAGTCACCTAGTGCAG” is 3950 fluorescence intensity (a.u.); for “TACCTAACAGAAAATTGAGTAATCTTTCTGTTGCTGGAGACGGAGTCACCTAGTGCAG” it is 11700 fluorescence intensity (a.u.); for “TGTCTAATTTGAGGAGAAGAGACGACCGCTTCTTTTGGTGCGGAGTCACCTAGTGCAG” it is 6190 fluorescence intensity (a.u.). Then “GTCCAGTCAATTTGTCAAATTTTCTTCTGCTGGTCTTGATCGGAGTCACCTAGTGCAG”, with 18700 fluorescence intensity (a.u.).

As for “TTTAATTTACAGTTAAATTAACTTAATCTGTAAAAGGGATCGGAGTCACCTAGTGCAG”, the binding signal was 57500 fluorescence intensity (a.u.). Then “GTCTTGATTGCTTCAATTTTGCGTTACCTTACCATTTCTTCGGAGTCACCTAGTGCAG”, with 41400 fluorescence intensity (a.u.); and “TTTCCATATTAATTTGATAAATAGAGAAGAATCTAAACTGCGGAGTCACCTAGTGCAG”, with 7470 fluorescence intensity (a.u.); and “TGATTGTTGTGATTAACAAAGTTGTAATATCTTTTGGTTTCGGAGTCACCTAGTGCAG”, with 8420 fluorescence intensity (a.u.).

Regarding “ATGATTTTCATCCGTTAGATTTGATGAATAAAGTATGAAGCGGAGTCACCTAGTGCAG”, the binding signal was 11100 fluorescence intensity (a.u.). Then “GAGAAGGGGATTGAGGAGATTGGGAAGATACGCAAAACTACGGAGTCACCTAGTGCAG”, with 6420 fluorescence intensity (a.u.); and “CCCTTAAATTGTCCAAGTTCATCACGCAAACAAGATGTGGCGGAGTCACCTAGTGCAG”, with 9820 fluorescence intensity (a.u.).

On to “ATAAATAATAATTTATTTATTCAGCCATTGAGCTATCAGCCGGAGTCACCTAGTGCAG”, for which the binding signal was 23600 fluorescence intensity (a.u.).

For “GTAGGATTGGATGGATATAGGAGCCTGCCTTGCCTTCCTCCGGAGTCACCTAGTGCAG”, the binding signal was 6030 fluorescence intensity (a.u.). The figure for “AAGCAACAATTAATTTGGGACGGAGATAGTATATATGCTGCGGAGTCACCTAGTGCAG” is 10400 fluorescence intensity (a.u.); for “AATTAGTCAGATTTAGAATAATTTGACTTTGACAAAAGTCCGGAGTCACCTAGTGCAG” it is 7020 fluorescence intensity (a.u.). Regarding “ATGTAATTTCACCATAACTATATATTATAATAAGATAAGTCGGAGTCACCTAGTGCAG”, the binding signal is 8720 fluorescence intensity (a.u.). Consider “AAAATTTATAAACCTTGATTAATTTCAGAGTCAAACTGAACGGAGTCACCTAGTGCAG”, for which the binding signal was 13400 fluorescence intensity (a.u.). Then “ACGAAATTGGCTCGATAAATTTGACATTGGAATATAGTGTCGGAGTCACCTAGTGCAG”, with 22600 fluorescence intensity (a.u.). The figure for “CTGATTTACATGGTAATGATCGCATACTTGAATCATCCAACGGAGTCACCTAGTGCAG” is 17900 fluorescence intensity (a.u.); for “ATGGTCCAATCAGGGAACAAGTGCTAGGACAAACACTGGTCGGAGTCACCTAGTGCAG” it is 3350 fluorescence intensity (a.u.). Consider “ACAATGATGACTAGAGTTGATGATGCATGATGGAGAGATACGGAGTCACCTAGTGCAG”, for which the binding signal was 6020 fluorescence intensity (a.u.). The figure for “GCACAATGATGACAACAGACAGTTTCCCACAGAAGATCCACGGAGTCACCTAGTGCAG” is 4550 fluorescence intensity (a.u.). Then “AGTTGATGGCTGATTAGAGATACATTTAAAAGAATCGAATCGGAGTCACCTAGTGCAG”, with 20600 fluorescence intensity (a.u.); and “AACATATTTCAATCTAACCACCTATCATCTTAATGACTTTCGGAGTCACCTAGTGCAG”, with 4700 fluorescence intensity (a.u.). The figure for “GTTTTAATTGTTTTACTGATTTGCAAATGAGTCTGGGATGCGGAGTCACCTAGTGCAG” is 63500 fluorescence intensity (a.u.); for “CCTCCTGGTAATCAGTTAGAATTAAAATCACGTGACTCTCCGGAGTCACCTAGTGCAG” it is 5590 fluorescence intensity (a.u.). As to “TCAATATCAATCAATCTCCGCCAACTCCCTCGAATCGCTCCGGAGTCACCTAGTGCAG”, the binding signal was 29600 fluorescence intensity (a.u.). With “ACATCGTTCCAATTTCAATCAAATTTCTAATTTTGGTATGCGGAGTCACCTAGTGCAG”, the binding signal is 13600 fluorescence intensity (a.u.). For the sequence “GATGTAATTAAATTACCGGCGTTAGCGTGGCCCGATCGATCGGAGTCACCTAGTGCAG”, the binding signal was 10400 fluorescence intensity (a.u.). The figure for “CGAAGAGTTAAACTGATAACCTTAATCAAGAAATCAACGACGGAGTCACCTAGTGCAG” is 4900 fluorescence intensity (a.u.); for “ATGATTGGAGTCAAATTGAACTTGTACTGATGTGGAGGAGCGGAGTCACCTAGTGCAG” it is 53400 fluorescence intensity (a.u.). For “TGGCCTTGATTTGCTTCCTGAATGTGCCTGCTTCCTTACACGGAGTCACCTAGTGCAG”, the binding signal is 18100 fluorescence intensity (a.u.).

“ACGTTATAATTCTATCACAATATATTGAGATACGTAGCTACGGAGTCACCTAGTGCAG”: the binding signal was 4520 fluorescence intensity (a.u.).
